Variants at the background level are over-represented here.
B1: TPR 5TU (parent)
chain: GGAUCUUCUCGAUCUAACAAAAAAGACAAAUCUGCCACAAAGCUUGAGAGCAUCUUCGGAUGCAGAGGCGGCAGCCUUCGGUGGCGCGAUAGCGCCAACGUUCUCAACUAUGACACGCAAAACGCGUGCUCCGUUGAAUGGAGUUUAUCAUG

Variants of: B1
Experiment: polymerase ribozyme fitness, log enrichment relative to wild type (log ratio); higher = more active; in vitro selection for triplet polymerase activity
Outline: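 Mutant libraries of both subunits of a heterodimeric triplet polymerase ribozyme were PCR-built, transcribed, and selected once in triplicate, with frozen incubation at −7 °C and capture of gel-excised extended constructs on streptavidin beads before RT-PCR. Illumina sequencing of input and output libraries was filtered to genotypes with ≥10 input reads and ≥1 read per output. Fitness is the logarithm of genotype enrichment over wild-type enrichment, using inverse-variance-weighted replicate averages. The logarithm is base 2.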

Polymerase ribozyme fitness (log ratio), ≤ -4.2:
A3C A12C C14U G48C A49G A60U U61C C85G G136U
A3C A17C U56A G81A C85U U139C
A3C A19U A37U A60U G74A G80A C99A C103A
A3C A21U A28G C38G C96A
A3C A22C C96A A97U A106C A122C U144C
A3C A22G G25A A39U U56A G59A U61A G94A
A3C A23U A24C C35U G48U U82A C116U
A3C A24C A40U U61A G62A G68C C85U G92C C131U G136U
A3C A26U G50U C93A C96A A98U
A3C A28U C32U C36A C54U A137C
A3C A30U C75G G86U C116G G117A C129A
A3C A40G A52G U55A G59A G84A G126A C132U A137C A150G U151C
A3C A52G G59U G68C C85G A120G G128A C132U U145G
A3C C5G U45G G50C C108A A120U
A3C C8A U61G G84A C93A G141C
A3C C8G C14G A40G A66C G74U C75A U82A C93U G141C
A3C C8G C93G A97U C105U C116U
A3C C10A G42A C79A C85G
A3C C14G A17C C38U A52U A60G U127A U151G
A3C C14U C35A C85G G88C G92C C95U A122U U127G
A3C C18G A47C A73G G83C G133A
A3C C32A G46A U78A
A3C C54A G94U
A3C C76A G92A
A3C G42A C51G C85U
A3C G48U U90C G92A G152A
A3C G50A U77C G88A G140U
A3C G62A U78A G84A C149G
A3C U4C C5G G74U C75U U78G C85U A150G
A3C U4G C8U A60G A106U A137C
A3C U6C A39G U78G G86U C123G U139C
A3C U6G A23G A26C A40U C43G C96G G117A U139G U145A C149G
A3C U9A A19C C27A A30C U31G C79G G88U C93G A110C C129G U139G
A3C U9G A24U A26U A52C C69U G88A A113C
A3C U45C U55G C103G
A3G A12G A16G A22G A29C U55G U61G C75U G92U U130G
A3G A12G A24G G42C U44A G88C C105A A113U A121U C125A
A3G A16C C51A G88U C95A G117C
A3G A19U A23G A24G G34C G83U C95A U102G
A3G A20C A22U A39G U55A G112C
A3G A21G A28U A37U G88C
A3G A21U C35A C85U G112U A147C G152A
A3G A22C A37U A60U C85A G94A
A3G A22U U33G U55A C93U
A3G A28U A29G C75G C95U C131A
A3G A30G U45A G70C G83A
A3G A47U G50C G84U G86U
A3G A49G C75G G88U A91C C93A U101G A107C G136C
A3G A64G C85U C96U C131G A147U
A3G C8A U15G U78A C85A U144C U146G
A3G C14G A39G U61A G67C C85G C96U C103U A110U
A3G C14G C85A C99G U139G U146G
A3G C32A G50A G59U U78C C95U C105U G143C U151G
A3G C36U A49U U55A C75G C96U
A3G C36U C75G A91G U104G A120G C125A A138U
A3G C43U C93G A119U A120C
A3G C75G G92U U101G
A3G G34A G42A C95G A122U U127C A138U U146G
A3G G50A A52G G71A G74A C125A
A3G G71A C85U G86A C93U C114U A150G
A3G G88C
A3G G88U C108A
A3G G92C C95U A107C A113G C114U A138G
A3G G94A C99A U109G A113G
A3G U6C U61A C99U
A3G U7A A23G A28C A40C G48A G62C C99A G128U
A3G U7C A29C U55A G62C G88C
A3G U9A C57G U61G C87A G94C C96U U130G C132G
A3G U13A C57A A60G A66G C96G U101G
A3G U15A U31G C35U U61C C85U U102A A110G A122U G126A
A3G U44G U55A C99G U148A
A3U A12G A26U G50U G92A C96U A97U
A3U A16U A52C G94C A97C U144C
A3U A19C A66C C75U U134C A147C
A3U A19U A24U A28G A29U C32A A66G U146C
A3U A21G A66C G80C A91C C96G
A3U A22U A73G A106U A150C
A3U A23C C32A C72A A73C A89G C95U U104G
A3U A23G A41C C76G C85U
A3U A23G U45G G46C U56A C85U U90A G92C C93A
A3U A23U G46A U55G G80C G92A U111A G141C A147C
A3U A24G C76G U144C
A3U A28U A40G U77C C93U
A3U A29U A47C G71C
A3U A39C U44A U55A G83C C108A
A3U A39U C54G C99G A107C A142G
A3U A40G A49U U53C G67U C72U G80A C85U U102A
A3U C5G A12C U44C C85A C118U A142G
A3U C5G A30G U45A U78C G80C A89C G94U
A3U C8A A60C C79G G88C C105A U139G A142G U144C A150C
A3U C8G G65U A97G C99A
A3U C10G C35U C75U U139A
A3U C14A A17U A29G C69A
A3U C14G A21G U61A G94A U109C A142G
A3U C18A G83A G92A A107G G143C
A3U C18G A37C C75G G88A G128U
A3U C18G C43U G58U C79A G88C C103A C125A
A3U C27G A30U A40U C51U G62C C85U A91G G100A G136A
A3U C27U A52U G70A C87G A97U
A3U C35A G74A C95G A121U
A3U C36G C63G G84A C105A C123A C131G
A3U C36G C69A C95G
A3U C36U A49G G88C C132G A137G G143U
A3U C69G C85U C93A U104G G141C
A3U C85G C105G A113U
A3U G11C G58C A73U A91U
A3U G11U C35U C38U G74U C87U
A3U G25C G46C U78C C93U
A3U G34A A66G C93A U135A
A3U G50A A64G U146C
A3U G50A G81C C85A U109G
A3U G50U G80U C116A G124U
A3U G86A U148A
A3U U6A G25A G81A C93U A98C A137G
A3U U6C A17G A28G A49C C57U G58A G83C U148A
A3U U7C U77G G84A G117A U148A
A3U U7G A24C C35A C36U C125G
A3U U9A A17U C27U A41C U53G C85U G92C U148G
A3U U13A C32G C54U C69A G94U C96A A97G U144G U151G
A3U U13G G140A C149U
A3U U33G G42U C54G A66G C69G C95A G140C U146C
A3U U45G A52C G59C G68A C93U
A3U U55A G74C C85U
A3U U55A G81C A91U U148C G152C
A3U U56A C57G G68A A97U U144A
A3U U61G C76A C96G C105G
A3U U78A
U4A A16G G42A G94U
U4A A19G G50C C72U G143U U145G
U4A A19G U130G G133A
U4A A19U C27G C32G G62U U139C
U4A A20G C54U U55A G62C G68A C96A G143U
U4A A20U C79G G88C U104G G124U A138C
U4A A26U A39U C96U
U4A A28U C51U U90C C93U A142U U144A U148C
U4A A30G C75G C95U A120U A121C
U4A A30U G70A G80A G92A U101C C118A A138C
U4A A41C C105U C129A G136A
U4A A41G A66C G67A A137U G140U
U4A A52G U90A G128C
U4A C5A U15A C43U A47C A66G C87A A115G A119G G141C
U4A C8G A26G A39U C43A G58U C72A C99U A106G G143C A150C
U4A C8G U15C U33A U109C C116U C131U A147U
U4A C10G A52G G74A C76U G84C C118G G143U A150G
U4A C14U A19G A21G U61C G88C G117C A138C
U4A C43U G58C C95G A113G C114G C116G
U4A C57U C85G A97C U151G
U4A G25A C54A G83A G92A
U4A G34A G117U A137C A142U
U4A G50C C85G
U4A U6A A12C A23C C76A A97G U101G
U4A U15A A22C C54A A66G C99G C116U
U4A U31C U55A G65C G80C C114U
U4A U31G A41C G59U C76A A89C
U4A U45A C87A A106U A115U C123U G141C
U4A U102A U111G
U4C A22C A29C C32G G67C G80U G81A A122U
U4C A22C A52G G141A A147C
U4C A23G A29U C32U U53C C93G G141C G143A
U4C A24C A47G G50C C63G U109A A147C
U4C A26G C35G C51U U55A U61A C95A C96U G140A
U4C A26U U45C G94U C105G G124U G143C
U4C A30U C32U C43U G71A C85U C123A
U4C A39G G42A C87U
U4C A40G G46A C69A A137C G140A
U4C A41C G74U C93A A115U
U4C A49U G65A C96A U135G U144G
